Data on two molecules can be found in patent US20230346784A1 (priority 2020, published 2023).

The conditions of data set [1]: human, in vivo.

For the molecule `CC(=O)c1nn(CC(=O)N2C[C@H](F)C[C@H]2C(=O)Nc2cccc(Br)n2)c2ccc(-c3cnc(C)nc3)cc12` [Compound 1, danicopan], in data set [1], the “liver enzymes elevation observed in the clinical program” value is on record as “transient nature of liver enzymes elevation”. With `CC(=O)c1nn(CC(=O)N2[C@H]3C[C@]4(C[C@@H]24)Cn2cc(nn2)COCc2ccc(Br)nc2NC3=O)c2ccc(-c3cnc(C)nc3)cc12` [Compound 2], the “elevation of serum Bb concentration” value with serum factor Bb was “inhibited”.
